Assay results: the supplement of paper PMC3334620
The full ranking holds about 33,000 sequences; the median of “E-score (-0.5 to 0.5)” is about -0.032, and the highest 2% start at about 0.36. The list shows a part of the results.

molecular target: T1, Sko1 (UniProt Q02100); assay: PBM E-score (8-mer binding enrichment) (E-score (-0.5 to 0.5)); higher = stronger / more preferred TF binding; most listed sequences are background and not binding sites; settings: protein concentration: 200 nM; construct: GST-full length
T1 sequence: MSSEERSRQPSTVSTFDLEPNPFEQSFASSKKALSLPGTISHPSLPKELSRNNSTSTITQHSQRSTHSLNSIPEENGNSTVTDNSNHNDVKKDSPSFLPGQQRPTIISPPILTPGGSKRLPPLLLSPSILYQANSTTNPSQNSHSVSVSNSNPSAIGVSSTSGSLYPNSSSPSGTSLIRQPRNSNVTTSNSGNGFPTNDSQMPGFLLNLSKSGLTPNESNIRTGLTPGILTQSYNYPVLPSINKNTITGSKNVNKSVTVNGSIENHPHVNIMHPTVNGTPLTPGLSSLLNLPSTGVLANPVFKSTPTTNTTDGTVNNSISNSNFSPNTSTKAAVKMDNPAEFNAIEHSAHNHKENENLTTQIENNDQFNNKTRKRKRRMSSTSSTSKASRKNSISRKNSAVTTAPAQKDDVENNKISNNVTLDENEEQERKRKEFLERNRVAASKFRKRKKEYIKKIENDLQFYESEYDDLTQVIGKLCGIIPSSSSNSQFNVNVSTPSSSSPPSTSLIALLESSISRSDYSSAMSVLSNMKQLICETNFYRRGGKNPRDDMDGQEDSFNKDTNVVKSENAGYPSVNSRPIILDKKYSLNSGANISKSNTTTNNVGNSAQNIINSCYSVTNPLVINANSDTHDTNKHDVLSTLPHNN
How it was run: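 Detection of bound protein used fluorescent anti-GST, with scans normalised by masliner. The proteins were GST-tagged yeast transcription factors applied at about 100-200 nM to universal all-10-mer Agilent arrays made double-stranded by primer extension. Each ungapped eight-base word, pooled with its reverse complement, was scored with an E-score from the Universal PBM Analysis Suite.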

Row | Sequence | PBM E-score
1 | ACGAAGTC | 0.0879
2 | ACACTCAT | 0.131
3 | CAACGACG | 0.128
4 | AGCGTGTG | 0.0406
5 | ATAAACGA | 0.204
6 | ACGGTCGA | -0.135
7 | CGCATGCG | 0.0824
8 | AACCGTTG | -0.00171
9 | CGTGGACA | 0.0971
10 | ACAGGGCC | -0.279
11 | CTAGGAAC | -0.0922
12 | CTACAGCC | -0.313
13 | AAAACTGC | -0.0189
14 | CTGAATGA | 0.00842
15 | AAAGCCGT | -0.115
16 | GCACGGGC | -0.445
17 | ATCTTTTA | 0.245
18 | ACGCGTCT | 0.192
19 | GACGTCAA | 0.47
20 | AACCCTAA | -0.0979
21 | ATAGAAGG | -0.281
22 | AGCCCCTG | -0.282

Row | Sequence | PBM E-score
23 | GCAAGTGC | -0.199
24 | CTGCGCTC | -0.243
25 | AGTGCCCG | -0.249
26 | AACGTAAA | 0.425
27 | ATGATGTG | 0.379
28 | ATAGGTCC | -0.0691
29 | AGATTTTC | 0.0522
30 | CGTCAGAC | 0.394
31 | CGTCCGAA | 0.0395
32 | GTCTTTTA | 0.0889
33 | AACGGCGC | -0.319
34 | CACGGCAG | -0.147
35 | TCTCGACA | 0.0905
36 | CTGGTTTA | -0.0494
37 | CACCTAAC | -0.0307
38 | GCTTTCGA | -0.209
39 | AGTACACA | 0.0979
40 | CCACTTCG | -0.137
41 | CAACTGTA | 0.116
42 | ATGTCAGG | 0.0993
43 | CCCGAGGA | -0.31
44 | ATTGTTTC | 0.146

Row | Sequence | PBM E-score
45 | CGACGCAG | 0.0186
46 | TCCCGTAA | 0.11
47 | AACAGCTG | -0.0414
48 | AACTGCAC | 0.0155
49 | GCTGAAGA | -0.196
50 | AGAGAAAG | -0.108
51 | CAGCTACC | -0.155
52 | CAATCCGG | -0.0752
53 | ATTGCTCA | 0.185
54 | AGATTGTG | -0.055
55 | ATTTGCTC | -0.157
56 | CAGCGGAC | -0.226
57 | AAGACAAA | 0.254
58 | TAAAGGTA | -0.107
59 | CTTTGATC | -0.0354
60 | CACTAAAG | -0.0266
61 | ATTACAAC | 0.169
62 | ATACCTCA | 0.109
63 | CTGGATTC | -0.0624
64 | CAGCCCTG | -0.176
65 | ACTTCCTC | -0.284
66 | GCTCCCAC | -0.193

Row | Sequence | PBM E-score
67 | AGCTGCCA | -0.168
68 | CAAACTAC | 0.179
69 | CGTTCCGC | -0.102
70 | CCAGATCG | -0.0595
71 | CGCAACAG | 0.201
72 | CCCACTTA | 0.0109
73 | ATTTTCAA | 0.149
74 | ACATAGAA | -0.0238
75 | AAGTCGGC | -0.291
76 | ACCAGTCG | 0.0271
77 | AATTTACG | 0.332
78 | ATCGTGTC | 0.0213
79 | CAGAGAAA | 0.125
80 | GGTACGAA | 0.19
81 | AGGCGAAT | -0.0114
82 | GCTCACAC | -0.0342
83 | GAGATGCA | -0.0586
84 | ATGCTGGG | -0.231
85 | CGCTTGAA | 0.0677
86 | CAATCCCA | -0.15
87 | ATACATGG | 0.0827
88 | ATCAGAGG | 0.0108

Row | Sequence | PBM E-score
89 | ACGTGAGG | 0.276
90 | ATTAATGA | 0.161
91 | AAACAATC | 0.0366
92 | AGGGGCGC | -0.223
93 | AAACTTTC | -0.0546
94 | AAGGAGCC | -0.344
95 | ACAGGCGT | -0.222
96 | ATCTTTAA | 0.136
97 | ACTTATAT | 0.234
98 | CTTTGATA | 0.0615
99 | AGGAGGAG | -0.247
100 | CGGTGTTC | -0.134
101 | AAAGCCCC | -0.258
102 | CCATGCTC | -0.247
103 | CTCTGTGC | -0.184
104 | CAAAAGAA | 0.191
105 | CAAGATTA | 0.11
106 | CTTGTCTC | -0.264
107 | CAAAGCAG | 0.0225
108 | CGGTATCA | 0.00148
109 | CCAACGGG | -0.254
110 | AGAACATG | 0.0335
